# Whole data set: some 33,000 sequences, median “E-score (-0.5 to 0.5)” near -0.043, cut for the highest 2% near 0.37. The list shows a part of the results.
# Target: T1, Upc2 (UniProt Q12151)
# T1 sequence: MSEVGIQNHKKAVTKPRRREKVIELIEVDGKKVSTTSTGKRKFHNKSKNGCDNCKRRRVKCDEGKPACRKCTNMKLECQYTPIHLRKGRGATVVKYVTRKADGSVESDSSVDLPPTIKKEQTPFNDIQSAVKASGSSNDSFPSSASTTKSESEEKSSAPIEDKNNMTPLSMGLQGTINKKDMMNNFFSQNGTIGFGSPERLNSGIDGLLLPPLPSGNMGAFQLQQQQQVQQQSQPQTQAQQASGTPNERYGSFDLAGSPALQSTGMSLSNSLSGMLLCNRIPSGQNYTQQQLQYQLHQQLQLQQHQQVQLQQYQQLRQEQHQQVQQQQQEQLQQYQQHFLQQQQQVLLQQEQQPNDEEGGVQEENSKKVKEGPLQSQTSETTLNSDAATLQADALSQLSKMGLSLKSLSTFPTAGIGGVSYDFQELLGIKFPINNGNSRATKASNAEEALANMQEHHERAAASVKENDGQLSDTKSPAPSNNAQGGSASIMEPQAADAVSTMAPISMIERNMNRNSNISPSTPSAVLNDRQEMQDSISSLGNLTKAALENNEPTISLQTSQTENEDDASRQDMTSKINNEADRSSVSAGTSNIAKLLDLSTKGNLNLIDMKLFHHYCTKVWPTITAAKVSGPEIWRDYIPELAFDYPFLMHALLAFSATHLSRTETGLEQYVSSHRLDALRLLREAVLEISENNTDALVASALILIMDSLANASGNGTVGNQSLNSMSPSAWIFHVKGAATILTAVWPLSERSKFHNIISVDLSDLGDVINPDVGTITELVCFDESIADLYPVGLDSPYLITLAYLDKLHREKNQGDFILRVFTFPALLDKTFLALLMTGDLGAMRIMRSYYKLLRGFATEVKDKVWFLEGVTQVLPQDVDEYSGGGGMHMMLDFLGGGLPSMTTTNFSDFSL
# Experiment: PBM E-score (8-mer binding enrichment) (E-score (-0.5 to 0.5)); higher = stronger / more preferred TF binding; most listed sequences are background and not binding sites
# Settings: protein concentration: 200 nM; construct: GST-full length
# Outline: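 GST-tagged yeast TFs (full-length or DNA-binding domain) were made by PURExpress in vitro transcription/translation and applied at about 100-200 nM to universal all-10-mer Agilent arrays. The arrays were made double-stranded by primer extension, on fresh or once-stripped slides. Bound protein was detected with fluorescent anti-GST, and scans were normalised with masliner. Each ungapped eight-base word, pooled with its reverse complement, received an E-score (modified Wilcoxon-Mann-Whitney statistic) from the Universal PBM Analysis Suite.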
row,Sequence,PBM E-score
1,AGGTCGAG,-0.149
2,GTATGCTA,0.0964
3,CCGCTAGG,-0.19
4,CACCACAA,-0.0979
5,CGGGCACG,-0.133
6,AACCTTCT,-0.262
7,GTAATATA,0.197
8,ACGTCGCA,0.201
9,ACTGGGCA,-0.0797
10,CCATCAGG,-0.216
11,ATATAAGG,-0.116
12,TATCACGA,0.108
13,GTAAGAAC,0.207
14,CTCGTAAC,0.425
15,AATTTCAA,0.0209
16,ACAAACCT,-0.154
17,AGGTATAG,0.103
18,CACGACCA,-0.0648
19,CTACCTGC,-0.204
20,ATCCGAGA,0.238
21,AGCTGGGA,-0.277
22,CACAGCCA,-0.193
23,AGGCCGTC,-0.02
24,CGCCCAGC,-0.0365
25,GAGTACCC,0.0344

row,Sequence,PBM E-score
1,GCGTAGGA,-0.0966
2,CTGAACAC,0.0787
3,AGCCATCC,-0.225
4,GCGTCAAA,0.0523
5,CGGTTACC,0.301
6,ACACGCGT,0.152
7,AGTTGCTC,-0.148
8,GCAACGCC,-0.17
9,ATATTAAG,-0.108
10,AAAACTTT,-0.073
11,AACGGCCA,0.181
12,CACTGGTC,-0.0102
13,AAATGACC,-0.129
14,GGCCTAAA,-0.155
15,ACAGACAG,-0.00816
16,ACCAGTGG,-0.247
17,ACTGTCGA,0.0599
18,GACGTCGA,0.11
19,ATCCTTTC,-0.0818
20,GGCGGGGA,0.232
21,CCGATCTA,0.0149
22,ACAGTGGT,0.0357
23,CGAAACGC,0.15
24,AGTAGCGG,-0.151
25,GAATGCCA,-0.209

row,Sequence,PBM E-score
1,CAAGTGCG,-0.11
2,CGCAGAAG,-0.089
3,ATACCGGA,0.096
4,AGGCCGGG,-0.0884
5,AGATCTCC,-0.185
6,GGGTCGAA,0.0267
7,TCGCGCGA,0.0486
8,AGAACTAG,-0.332
9,ATTGATCC,-0.142
10,TAACGTTA,0.102
11,CGAATACC,0.0972
12,AGATCCAA,-0.0522
13,AAACTCAC,-0.0591
14,ACGACTGC,0.315
15,GAGCCACA,-0.0946
16,ATAGATTG,0.01
17,CGCCAAAG,-0.324
18,CTGTGCTA,-0.154
19,CTATCGCA,0.0282
20,GCCTTGTA,-0.102
21,ATGTGACA,-0.00596
22,CGTAGGTA,0.0321
23,CCCAATCA,-0.165
24,ATCGATTG,0.0896
25,AACGCCAG,0.0051

row,Sequence,PBM E-score
1,GCAAGGGC,-0.275
2,CCGGCACC,-0.204
3,CTTATGCC,-0.0216
4,CACGCGCG,-0.095
5,TTGCCAAA,0.122
6,AACCCTGA,-0.142
7,TACAAACA,0.113
8,CATGCCTA,-0.28
9,CCCTCGCC,-0.064
10,GAACATGA,-0.0854
11,CCGCTTAC,0.176
12,CGAAATTA,0.107
13,CATCCCGG,-0.244
14,ACCTGTAG,-0.118
15,GTGGCAGA,-0.211
16,ATGTGCCG,-0.129
17,ACAAGAAG,-0.106
18,ATAAGAGG,0.21
19,AACAGCCT,-0.199
20,ATCCTGAC,-0.109
21,GCCACCGA,-0.216
22,AGACCGAC,0.115
23,AGCACTGA,-0.175
24,ACGTTATC,0.0616
25,CGCTAACA,0.0561

row,Sequence,PBM E-score
1,TCTTGCAA,0.0489
2,ATATTTTA,0.134
3,CGAGTATA,0.267
4,ACATATGC,0.00119
5,CCCAGGGA,-0.29
6,CGAAATCC,0.00047
7,TGGAGTAA,0.00689
8,CCCATAAC,-0.0388
9,AGTTTATA,0.129
10,ATCAGTAG,-0.0285
11,ATCCGACC,0.135
12,ACTGCGCA,0.155
13,AATTACTG,-0.167
14,ACCCCATC,-0.05
15,ACAGTTGA,-0.212
16,CATGGACC,-0.151
17,AGGTAAAG,0.0594
18,ACAAGCCC,-0.1
19,CCGGACCA,-0.0772
20,ACTTGCGA,0.156
21,AAGTATAT,0.104
22,ATGGCGTC,-0.0819
23,AGCTTCCG,-0.0739
24,CCATGTCG,0.115
25,CGAATTAA,0.306

row,Sequence,PBM E-score
1,AAACGTGC,0.23
2,CCTGAACC,-0.146
3,GTATACAC,0.349
4,AGCCGGAG,-0.164
5,AGGATCGA,0.122
6,ACAGGCAT,-0.079
7,CCTTGGAC,-0.0581
8,CTTAGTGC,-0.128
9,GGGGACAC,-0.234
10,AGCAAGCG,0.13
11,GGCAGCCC,-0.106
12,CCATGTCA,-0.227
13,GAAGGCAC,0.00587
14,GTGTCCGA,0.19
15,AAGACCTT,-0.0994
16,ATTCCGTC,-0.25
17,TGTCCAAA,-0.0722
18,GTTGCGCA,-0.0544
19,CCCGCTTC,-0.155
20,GTTAAAAA,0.11
21,ATCAATTC,-0.0615
22,ACCAGCCT,-0.124
23,GCTTGTCC,-0.034
24,CCAGCGAG,-0.0577
25,CTTGGAAA,0.0884

row,Sequence,PBM E-score
1,AGGAGGAT,-0.168
2,CACCGGGC,-0.273
3,GGGGGTGA,-0.208
4,AACCCACT,0.0108
5,AAGCCTAC,-0.222
6,AACCATGG,-0.0402
7,AGCCACGG,-0.167
8,ATGGTAAT,-0.0194
9,AGATCGTA,0.387
10,CGTACCAG,0.39
11,AGCCGTCA,0.0375
12,TTGGACAA,-0.133
13,ATGTACAT,0.16
14,GCGCTTGA,0.0423
15,ACTGAAGG,-0.198
16,AAACCTGA,0.021
17,ACGCACGC,0.131
18,CGTAGCCA,0.201
19,CAGTGCAG,-0.0314
20,CTAGGTGA,-0.169
21,CTTGGTAA,0.0951
22,CGGTTGGC,0.195
23,GGCAGAAC,-0.135
24,GAATCGTC,0.052
25,ATATTACA,0.152

row,Sequence,PBM E-score
1,AATATAAA,0.0391
2,AGTCTAGC,-0.134
3,GACATCCC,-0.102
4,ATCTTTGG,-0.206
5,GATCCTAA,0.0826
6,CCAGAGGG,-0.289
7,CTCAACAA,-0.0893
8,ATTCGAGG,0.0605
9,GATCGGGC,-0.136
10,ACTTTTAA,-0.0185
11,CCACGAGC,-0.0694
12,AGTTTCCC,-0.215
13,CGCGAAGA,0.0952
14,AGATATGG,-0.0349
15,AAAGCCAA,-0.185
16,CCTGTAAA,-0.0269
17,CCCTGAAA,-0.0709
18,AGGAACGA,0.449
19,CCGACTGC,0.0197
20,ACTCAGCT,-0.149
21,ATCTGCAA,-0.245
22,ACTCTCGC,0.186
23,ACTGCGGA,-0.0568
24,ACCGCGCT,-0.108
25,AGACCCAC,-0.0603

row,Sequence,PBM E-score
1,ATTTTAGA,-0.0396
2,GGTCCAAA,-0.236
3,CAGACTTC,-0.0462
4,GCAGACAA,-0.0463
5,AGCACGCC,0.063
6,AGGAGGTA,-0.0705
7,AGAGAGAT,-0.11
8,CCGCTTCA,-0.0583
9,ATGGGTTA,-0.00164
10,GGCCCGAA,0.0386
11,TAGAATGA,-0.263
12,ACCAGTCC,-0.319
13,ACTTTTTG,-0.124
14,GTACTACA,0.196
15,ATCCCGAG,0.0317
16,ATTAGGCC,-0.153
17,GAGGAATA,0.0306
18,CATGTTAA,0.0636
19,GCCGCGAC,-0.0946

# — the supplement of paper PMC3334620
